# Measurements: PubChem BioAssay (NCATS)
# This list was built around the results that the source calls inconclusive (neither active nor inactive); the mix of calls is not that of the screen. For part of these data: Potencies of inconclusive entries are left out as doubtful fits. The source made the active and inactive calls. Unless noted, calls come from the whole dose curve; as a rule, active = well fitted curve in the direction sought with a large enough effect; inconclusive = small, poorly fitted or top-dose-only effect, or another doubt; inactive = no such curve, though single readings can be large; an effect the other way counts as inactive or inconclusive.
# Key:
# [1] = P-glycoprotein substrates identified in KB-3-1 adenocarcinoma cell line, qHTS therapeutic library screen (AID 1346986);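 note: potency is the fitted concentration of half-maximal effect; potency is for cytotoxicity meaning loss of cell viability; nearly all actives have a fitted effect of over 60% in size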
# Summary of the method: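 In 1536-well format, 500 cells/well received pinned compound titrations and were incubated 72 h, 5% CO2. Viability was read by CellTiter-Glo; cytotoxic if AC50 < 10 uM and efficacy >50%.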
# [2] = Vero cells viability qHTS for Zika virus inhibitors (AID 1347167); note: potency is the fitted concentration of half-maximal effect
# Summary of the method: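 qHTS titration; 24-48 h compound exposure, 37 degrees C/5% CO2; DMEM, 4% FBS; CellTiter Glo ATP luminescence.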
# Hek293T = experiment: Primary qHTS to identify gynecologic anti-cancer compounds using libraries of approved drugs and bioactive compounds (AID 1345084); conditions: Gynecologic cancer cell panel viability, ATPlite luminescence, 48 h, control line for the selectivity index; activity change, negative = cytotoxicity: at 57.5 µM (top of the series) unless noted; note: potency is the fitted concentration of half-maximal effect; nearly all actives have a fitted effect of over 55% in size
# Summary of the method: (§1)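 In this quantitative HTS, cell killing is estimated from loss of ATP-dependent luciferase light. Cells see five compound concentrations over a 48 h exposure.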
# JEG-3 = experiment: as above; conditions: Gynecologic cancer cell panel viability, ATPlite luminescence, 48 h; series mostly up to 57.5 µM
# Summary of the method: as §1
# [3] = target: M-phase phosphoprotein 8 (Homo sapiens) (UniProt Q99549); experiment: qHTS Validation Assay for Inhibitors for MPP8 Chromodomain Interactions with Methylated Histone Tails (AID 488949);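 note: AlphaScreen signal from MPP8 chromodomain bound to biotinylated H3K9me3 peptide; top concentration of the series differs between compounds; % is set by controls: 0 for no effect and ±100 for the full control effect; nearly all actives have a fitted effect of over 55% in size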
# Summary of the method: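 MPP8 (50 nM) was preincubated with biotinylated H3(1-18)K9me3 peptide (50 nM) in PBS pH 7.4, 0.01% Tween-20 for 30 min at room temperature, then with compounds for 30 min; binding was detected by AlphaScreen.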
# [4] = target: Tyrosine-protein phosphatase non-receptor type substrate 1 (Homo sapiens) + Leukocyte surface antigen CD47 (Homo sapiens) (UniProt P78324+Q08722); experiment: CD47-SIRPalpha protein protein interaction - HTRF assay qHTS validation (AID 1347058; active = well fitted curve in the direction sought with a large enough effect in the signal ratio, not every such curve was filed as active; inconclusive = small, poorly fitted or top-dose-only effect, or effect the other way, or a change in a side signal; inactive = no such curve, though single readings can be large or run the other way; the % refers to the signal ratio; note: 0% is about no effect)
# Summary of the method: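 Soluble extracellular domains (6His-CD47, Avi-tag-biotinylated SIRPalpha) in PBS pH 7.4 with 0.05% IGEPAL CA-630. Compounds were preincubated 30 min at RT with CD47 and anti-His-Eu, then SIRPalpha and SAV-XL665 were added. TR-FRET 665/615 ratio.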
# [5] = target: Metallo-beta-lactamase type 2 (Klebsiella pneumoniae) (UniProt C7C422); experiment: qHTS to identify inhibitors of the New Delhi Metallo-beta-lactamase (NDM): assay validation screen against the NCATS LOPAC Collection (AID 1794843); note: potency is the fitted concentration of half-maximal effect
# Summary of the method: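 Nitrocefin hydrolysis (50 uM substrate stock) by NDM-1, 2 nM final, was followed by 485 nm absorbance after compound preincubation; buffer was 50 mM HEPES pH 7.0, 1 uM ZnSO4, 0.01% Tween20.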
# [6] = Cell Viability - Jurkat (AID 426;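 active = dose-dependent loss of cell ATP signal giving a full or clear fitted curve, ranked by lower potency value; inconclusive = weak partial curve or response only at the top dose; inactive = no loss of viability signal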;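 note: potency is the fitted concentration of half-maximal effect; cells exposed to compound for 40 hours at 37 °C before ATP read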); conditions: qHTS
# Summary of the method: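 Cells of the human T-cell leukemia line Jurkat (E6-1) are seeded at 5000 per well, treated with compound across a concentration range for 40 hours at 37 °C, then lysed with CellTiter-Glo; luminescence reports ATP.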
# [7] = MultiTox-Fluor Cytotoxicity Assay - LYMP1-001 - Dead Cells (AID 946); conditions: LYMP1-001 lymphoblastoid cells, dead-cell protease fluorescence; at 92.2 µM (top of the series);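 note: 0% = DMSO and 100% = tetraoctylammonium bromide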
# Summary of the method: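 In this qHTS, 15 uM tetraoctylammonium bromide defined 100% and DMSO defined basal activity. Lymphoblastoid cells (LYMP1-001, 2500 per well) received compound for 16 hr at 37 C before a fluorogenic dead-cell substrate readout at 485/520 nm.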
# [8] = MultiTox-Fluor Cytotoxicity Assay - LYMP1-003 - Dead Cells (AID 961);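 note: potency is the fitted concentration of half-maximal effect; cells exposed to compound for 16 h at 37 °C; nearly all actives have a fitted effect of over 70% in size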
# Summary of the method: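 Acute toxicity is scored as increased dead-cell protease activity in human lymphoblastoid LYMP1-003 cells after 16 h compound exposure in complete culture medium. Activity is normalized to DMSO basal and 15 uM tetraoctylammonium bromide as full response.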
# [9] = Cell Viability - LYMP1-002 - Assay at 40 hr (AID 994); note: potency is the fitted concentration of half-maximal effect; nearly all actives have a fitted effect of over 60% in size
# Summary of the method: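 Cells are plated at 2500 per well and rested 5 hr at 37 C. Compounds are added and incubated 40 hr at 37 C. CellTiter-Glo reagent is added for 30 min at room temperature before luminescence is read.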
# [10] = qHTS assay for small molecule disruptors of the mitochondrial membrane potential - 5 hr assay (AID 651755; calls by dose curve; note: % is set by controls: 0 for no effect and ±100 for the full control effect; nearly all actives have a fitted effect of over 40% in size); conditions: JC-1-type ratio dye; ratio change, negative = disruption: at 92.2 µM (top of the series)
# Summary of the method: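 Read-out: ratiometric Mito-MPS fluorescence, green monomer (ex 490/em 535) vs red mitochondrial aggregate (ex 540/em 590). HepG2 cells treated 5 hr at 37C before 30 min dye loading.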
# [11] = target: Nuclear receptor subfamily 1 group I member 3 (Homo sapiens) (UniProt Q14994); experiment: Primary qHTS for antagonist of constitutive androstane receptor (CAR) against the NCATS DSHEA and TCM libraries (AID 1794836); note: potency is the fitted concentration of half-maximal effect
# Summary of the method: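 HepG2-CYP2B6-hCAR cells, attached 5 h, given compounds plus CITCO agonist […], incubated 24 h at 37 C. Luciferase luminescence read, multiplexed with CellTiter-Fluor viability (Ex/Em 405/540 nm).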
# [12] = target: Nuclear receptor subfamily 1 group I member 3 (Homo sapiens) (UniProt Q14994); experiment: Primary qHTS for agonist of constitutive androstane receptor (CAR) against the NCATS DSHEA and TCM libraries (AID 1794839); conditions: CAR agonist reporter cells, qHTS luminescence; CAR antagonist co-added at 0.75 µM; note: potency is the fitted concentration of half-maximal effect
# Summary of the method: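 HepG2-CYP2B6-hCAR cells (2,500/well) were attached for 5 h, then treated for 24 h at 37 °C with compounds plus 0.75 µM PK11195. Luciferase luminescence (ONE-Glo) was read, with CellTiter-Fluor viability (Ex/Em 405/540 nm).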
# [13] = target: Cytochrome P450 1A2 (Homo sapiens) (UniProt P05177); experiment: qHTS for inhibitors of CYPIA2 against the NCATS DSHEA and TCM libraries (AID 1919976); note: potency is the fitted concentration of half-maximal effect
# Summary of the method: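 Enzyme and pro-luciferin substrate, or substrate alone as no-enzyme background, are pre-incubated with test samples for 15 min at room temperature. NADPH regeneration system (1x final) initiates a 30-45 min dark reaction; luciferase detection reagent follows before luminescence reading.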
# [14] = target: Nuclear receptor subfamily 1 group I member 2 (Homo sapiens) (UniProt O75469); experiment: Dual reporter qHTS for agonist of Pregnane X Receptor (hPXR) against the NCATS DSHEA and TCM libraries: Luminescence readout (AID 1920059); note: potency is the fitted concentration of half-maximal effect
# Summary of the method: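 hPXR-Luc HepG2 cells, 2000/well in 5% charcoal-stripped FBS medium, attached 5 h, then exposed 24 h at 37C to compounds. Viability by CellTiter-Fluor, then luciferase luminescence with ONE-Glo.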
# [15] = target: Muscarinic acetylcholine receptor M1 (Rattus norvegicus) (UniProt P08482); experiment: qHTS Assay for Antagonists of Acetylcholine Muscarinic M1 Receptor: Kinetic Measurement of Intracellular Calcium Response (AID 943);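 note: Fluo-4 calcium signal as peak divided by basal fluorescence over 4 min; nearly all actives have a fitted effect of over 75% in size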
# Summary of the method: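 Antagonism is measured as inhibition of the carbachol-evoked calcium rise in CHO cells transfected with rat M1. Cells are dye-loaded, exposed to compound for 10 min, then stimulated with 100 nM carbachol (EC80).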
# [16] = Cytometry Cell-Based qHTS for Inhibitors of the mTORC1 Signaling Pathway in MEF cells (AID 2668);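 note: Tsc2-/- p53-/- mouse embryonic fibroblasts stably re-expressing wild-type Tsc2; percent cells positive for phospho-rpS6 Ser235/236 relative to propidium iodide stain; plate controls were DMSO wells for no effect and 7.5 nM rapamycin control wells for full effect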
# Summary of the method: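 WT MEFs (Tsc2-/-, p53-/- stably re-expressing WT Tsc2) in DMEM + 10% FBS received compounds 24 hrs after plating, for 24 hrs at 37 degree Celsius. Fixed cells stained with Alexa-488 anti-phospho-rpS6 Ser235/236 and propidium iodide; laser-scanning cytometry read-out.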
# [17] = Natriuretic polypeptide receptor (hNpr1) antagonism - Pilot counterscreen GloSensor control cell line (AID 1347045; calls by dose curve; note: % is set by controls: 0 for no effect and ±100 for the full control effect)
# Summary of the method: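 Cells were first seeded and incubated overnight at 37C, then loaded with 2% GloSensor substrate for 2 h. Compounds were added for 30 min at room temperature, followed by a baseline read, 50 uM SNP and a final read after 20 min.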
# [18] = Cell Viability - LYMP2-006 (AID 978); conditions: LYMP2-006 lymphoblastoid cell viability, qHTS; note: potency is the fitted concentration of half-maximal effect; nearly all actives have a fitted effect of over 60% in size
# Summary of the method: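 Human lymphoblastoid cells, 2500 per well, were preincubated 5 hr at 37 C, then exposed to compounds for 24 hr at 37 C in complete medium. Viability was read as intracellular ATP by CellTiter-Glo luminescence; AC50 from Hill-equation fits of qHTS concentration-response data.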
# Tags give direction and shape of the fitted curve.
# Chain of UniProt Q14994 (Q14994 whole entry, looked up): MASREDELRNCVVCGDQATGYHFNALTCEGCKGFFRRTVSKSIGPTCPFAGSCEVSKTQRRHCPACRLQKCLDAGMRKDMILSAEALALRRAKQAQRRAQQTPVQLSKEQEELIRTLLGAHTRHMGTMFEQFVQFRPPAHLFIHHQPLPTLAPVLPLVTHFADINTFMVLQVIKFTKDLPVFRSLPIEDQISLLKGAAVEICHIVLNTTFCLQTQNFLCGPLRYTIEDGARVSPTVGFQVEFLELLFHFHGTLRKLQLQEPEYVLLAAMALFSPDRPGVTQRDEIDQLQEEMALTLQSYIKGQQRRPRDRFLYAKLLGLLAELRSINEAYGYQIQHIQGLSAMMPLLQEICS
# Chain of UniProt Q99549 (Q99549 whole entry, looked up): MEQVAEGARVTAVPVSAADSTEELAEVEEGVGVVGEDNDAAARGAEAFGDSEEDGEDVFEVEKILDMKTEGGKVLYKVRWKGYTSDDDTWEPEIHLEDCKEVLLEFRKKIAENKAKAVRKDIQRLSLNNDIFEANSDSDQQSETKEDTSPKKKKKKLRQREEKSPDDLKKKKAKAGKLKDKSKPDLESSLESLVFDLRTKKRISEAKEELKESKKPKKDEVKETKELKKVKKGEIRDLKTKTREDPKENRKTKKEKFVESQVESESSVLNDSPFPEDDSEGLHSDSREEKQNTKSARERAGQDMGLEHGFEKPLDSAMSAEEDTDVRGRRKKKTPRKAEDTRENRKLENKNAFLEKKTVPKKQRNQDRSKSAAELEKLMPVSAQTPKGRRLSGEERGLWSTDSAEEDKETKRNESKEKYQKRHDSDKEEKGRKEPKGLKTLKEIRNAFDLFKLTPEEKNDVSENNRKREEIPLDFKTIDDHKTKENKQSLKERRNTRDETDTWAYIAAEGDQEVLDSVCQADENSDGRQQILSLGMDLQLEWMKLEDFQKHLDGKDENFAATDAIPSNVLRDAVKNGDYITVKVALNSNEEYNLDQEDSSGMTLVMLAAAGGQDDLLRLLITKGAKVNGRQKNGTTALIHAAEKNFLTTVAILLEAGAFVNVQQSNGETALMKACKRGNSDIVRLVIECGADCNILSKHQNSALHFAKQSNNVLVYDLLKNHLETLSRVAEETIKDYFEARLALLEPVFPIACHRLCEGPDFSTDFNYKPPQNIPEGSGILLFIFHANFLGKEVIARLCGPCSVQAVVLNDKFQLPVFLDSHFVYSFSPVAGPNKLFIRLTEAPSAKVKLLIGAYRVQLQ
# Chain of UniProt C7C422 (C7C422 whole entry, looked up): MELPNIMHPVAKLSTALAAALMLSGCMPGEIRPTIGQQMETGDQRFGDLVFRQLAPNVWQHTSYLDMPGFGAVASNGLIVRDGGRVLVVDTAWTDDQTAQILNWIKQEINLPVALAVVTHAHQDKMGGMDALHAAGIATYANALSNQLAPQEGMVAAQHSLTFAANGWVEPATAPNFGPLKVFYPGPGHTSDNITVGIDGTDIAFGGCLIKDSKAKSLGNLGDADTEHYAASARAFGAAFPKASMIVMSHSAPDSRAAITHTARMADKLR
# Chain of UniProt P78324 (P78324 whole entry, looked up, the tested form may be a part): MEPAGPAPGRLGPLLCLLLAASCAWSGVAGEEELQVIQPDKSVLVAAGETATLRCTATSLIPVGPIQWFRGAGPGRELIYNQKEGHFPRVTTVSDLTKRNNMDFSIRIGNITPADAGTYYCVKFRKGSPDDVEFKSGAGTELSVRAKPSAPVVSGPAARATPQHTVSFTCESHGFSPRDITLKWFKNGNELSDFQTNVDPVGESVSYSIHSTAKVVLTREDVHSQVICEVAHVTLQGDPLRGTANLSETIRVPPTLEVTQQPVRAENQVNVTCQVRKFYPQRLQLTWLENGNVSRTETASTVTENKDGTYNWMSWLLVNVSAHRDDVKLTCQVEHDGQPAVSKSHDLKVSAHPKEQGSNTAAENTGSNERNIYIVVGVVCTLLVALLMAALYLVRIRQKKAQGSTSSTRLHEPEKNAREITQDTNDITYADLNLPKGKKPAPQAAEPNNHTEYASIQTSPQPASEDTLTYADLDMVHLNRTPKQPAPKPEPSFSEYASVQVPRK
# Chain of UniProt P78324 (Q08722 whole entry, looked up, the tested form may be a part): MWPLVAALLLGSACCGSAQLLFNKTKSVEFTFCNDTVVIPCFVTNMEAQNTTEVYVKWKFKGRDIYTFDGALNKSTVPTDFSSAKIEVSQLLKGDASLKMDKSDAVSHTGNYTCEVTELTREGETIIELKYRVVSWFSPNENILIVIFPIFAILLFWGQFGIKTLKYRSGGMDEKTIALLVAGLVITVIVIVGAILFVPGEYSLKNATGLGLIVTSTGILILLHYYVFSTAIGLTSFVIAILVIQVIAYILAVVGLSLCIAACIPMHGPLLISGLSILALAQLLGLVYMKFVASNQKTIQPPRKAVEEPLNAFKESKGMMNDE
# Chain of UniProt O75469 (O75469 whole entry, looked up): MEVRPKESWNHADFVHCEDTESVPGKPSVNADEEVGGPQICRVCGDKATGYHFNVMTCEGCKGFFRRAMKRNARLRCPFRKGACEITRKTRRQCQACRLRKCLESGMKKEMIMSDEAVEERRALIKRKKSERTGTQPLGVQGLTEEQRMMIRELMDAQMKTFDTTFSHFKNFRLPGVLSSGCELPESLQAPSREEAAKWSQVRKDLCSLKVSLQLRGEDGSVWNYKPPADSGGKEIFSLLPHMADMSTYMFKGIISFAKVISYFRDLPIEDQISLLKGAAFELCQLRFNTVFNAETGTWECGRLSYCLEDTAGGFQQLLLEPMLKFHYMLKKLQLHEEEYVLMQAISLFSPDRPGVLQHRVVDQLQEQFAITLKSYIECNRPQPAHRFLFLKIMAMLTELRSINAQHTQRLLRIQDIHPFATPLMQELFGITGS
# Chain of UniProt P08482 (P08482 whole entry, looked up): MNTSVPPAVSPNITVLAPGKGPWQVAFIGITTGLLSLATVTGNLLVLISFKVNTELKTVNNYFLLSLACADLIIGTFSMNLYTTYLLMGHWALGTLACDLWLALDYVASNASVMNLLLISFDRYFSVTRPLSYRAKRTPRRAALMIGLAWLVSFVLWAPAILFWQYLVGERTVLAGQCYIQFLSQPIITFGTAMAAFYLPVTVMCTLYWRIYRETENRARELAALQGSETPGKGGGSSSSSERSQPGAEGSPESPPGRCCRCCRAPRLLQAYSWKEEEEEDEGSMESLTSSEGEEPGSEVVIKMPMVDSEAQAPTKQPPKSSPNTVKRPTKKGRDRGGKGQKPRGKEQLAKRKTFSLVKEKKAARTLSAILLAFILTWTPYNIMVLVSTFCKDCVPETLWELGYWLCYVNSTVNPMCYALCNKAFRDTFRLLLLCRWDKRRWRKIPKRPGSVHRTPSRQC
# Chain of UniProt P05177 (P05177 whole entry, looked up): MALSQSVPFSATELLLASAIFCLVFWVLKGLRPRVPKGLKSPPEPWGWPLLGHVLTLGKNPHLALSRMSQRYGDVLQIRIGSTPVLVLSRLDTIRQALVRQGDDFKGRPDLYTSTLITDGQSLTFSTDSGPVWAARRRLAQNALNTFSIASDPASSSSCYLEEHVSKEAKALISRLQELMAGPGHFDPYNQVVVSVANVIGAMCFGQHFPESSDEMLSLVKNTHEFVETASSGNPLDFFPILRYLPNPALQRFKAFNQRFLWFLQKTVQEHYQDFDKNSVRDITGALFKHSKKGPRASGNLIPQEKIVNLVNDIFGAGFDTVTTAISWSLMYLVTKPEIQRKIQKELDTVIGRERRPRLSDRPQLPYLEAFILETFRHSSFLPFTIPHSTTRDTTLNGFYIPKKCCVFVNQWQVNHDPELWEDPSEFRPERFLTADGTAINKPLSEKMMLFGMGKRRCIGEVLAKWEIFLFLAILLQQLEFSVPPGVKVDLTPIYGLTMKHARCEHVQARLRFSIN
smiles,measurement,setting,value
O=C1NC(=O)/C(=C/c2cccc(C(F)(F)F)c2)S1,Potency,[1],"inconclusive [inhibitor, single point]"
same,Potency,[2],"inconclusive [cytotoxic, single point]"
C=C(C)Cn1c(SCC(=O)c2cccs2)nc2sc3c(c2c1=O)CCCC3,Potency,Hek293T,"inconclusive [cytotoxic, partial curve, poor fit]"
same,Potency,JEG-3,"inconclusive [cytotoxic, full curve, poor fit]"
N[C@H](CO)C(=O)O,Potency,[3],inactive
same,Potency,[4],inactive
same,Potency,[5],"inconclusive [inhibitor, partial curve, poor fit]"
CC1=C(/C=C/C(C)=C/C=C/C(C)=C/CO)C(C)(C)CCC1,Potency,[6],inconclusive [partial curve]
same,cytotoxicity (dead cells),[7],inconclusive: 37% [cytotoxic]
same,Potency,[8],"inconclusive [cytotoxic, single point]"
same,Potency,[9],"inconclusive [cytotoxic, single point]"
same,"ratio change, negative = disruption",[10],inconclusive: -21%
same,Potency,[11],"inconclusive [inhibitor, partial curve, poor fit]"
same,Potency,[12],"inconclusive [activator, full curve]"
same,Potency,[13],"inconclusive [inhibitor, full curve]"
same,Potency,[14],"inconclusive [activator, partial curve]"
C[C@@H]1C(=O)NC2=Nc3cccc(Cl)c3CN21,Potency,[15],inactive
same,Potency,[16],inactive
same,Potency,[17],inactive
CC(C)(C)NC(=O)[C@@H]1C[C@@H]2CCCC[C@@H]2CN1C[C@@H](O)[C@H](Cc1ccccc1)NC(=O)[C@H](CC(N)=O)NC(=O)c1ccc2ccccc2n1,Potency,[18],"inconclusive [cytotoxic, partial curve, poor fit]"
CC/C=C\C/C=C\C/C=C\CCCCCCCC(=O)O,Potency,[18],"inconclusive [cytotoxic, partial curve, poor fit]"
